Measurements from the supplement of paper PMC3334620.
In all, about 33,000 sequences were measured (“E-score (-0.5 to 0.5)”: median about -0.012, highest 2% from about 0.29 on). This is one part of the list.

These sequences were tested against T1, Ybr033w (UniProt P38073) (assay: PBM E-score (8-mer binding enrichment) (E-score (-0.5 to 0.5)); higher = stronger / more preferred TF binding; most listed sequences are background and not binding sites). Details: protein concentration: 200 nM; construct: GST-full length.
T1 sequence: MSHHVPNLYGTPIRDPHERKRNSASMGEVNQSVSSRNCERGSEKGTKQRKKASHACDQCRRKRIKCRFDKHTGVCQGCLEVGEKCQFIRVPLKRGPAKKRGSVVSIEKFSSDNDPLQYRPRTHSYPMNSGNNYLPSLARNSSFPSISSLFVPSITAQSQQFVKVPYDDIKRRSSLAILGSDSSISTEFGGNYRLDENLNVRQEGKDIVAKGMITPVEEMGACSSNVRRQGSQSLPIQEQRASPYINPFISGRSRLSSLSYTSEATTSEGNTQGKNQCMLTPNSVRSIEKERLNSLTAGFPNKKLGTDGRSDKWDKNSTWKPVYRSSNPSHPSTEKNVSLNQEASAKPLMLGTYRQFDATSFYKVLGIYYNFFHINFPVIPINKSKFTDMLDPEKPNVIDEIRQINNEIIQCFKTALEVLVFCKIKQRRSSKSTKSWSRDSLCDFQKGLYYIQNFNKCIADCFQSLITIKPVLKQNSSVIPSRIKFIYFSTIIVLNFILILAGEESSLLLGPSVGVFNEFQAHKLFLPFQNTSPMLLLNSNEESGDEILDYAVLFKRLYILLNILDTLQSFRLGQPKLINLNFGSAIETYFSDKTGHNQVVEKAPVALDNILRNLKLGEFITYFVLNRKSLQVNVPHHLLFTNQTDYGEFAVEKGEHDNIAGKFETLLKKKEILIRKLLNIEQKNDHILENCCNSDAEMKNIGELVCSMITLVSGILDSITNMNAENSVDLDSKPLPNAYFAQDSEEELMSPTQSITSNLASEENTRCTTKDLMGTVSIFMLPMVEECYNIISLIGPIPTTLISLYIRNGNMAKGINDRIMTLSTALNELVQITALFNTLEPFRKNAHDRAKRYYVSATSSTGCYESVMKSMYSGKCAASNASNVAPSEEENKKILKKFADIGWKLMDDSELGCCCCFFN
Protocol: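 Universal 'all 10-mer' protein binding microarrays (Agilent AMADID 015681) probed with GST-tagged S. cerevisiae TFs (full-length or DBD) made by in vitro transcription/translation (PURExpress), about 100-200 nM. Bound TF was detected with fluorescent anti-GST. Each ungapped 8-mer (which stands for itself and its reverse complement) is scored by the PBM enrichment score (E-score), a modified Wilcoxon-Mann-Whitney statistic from -0.5 to +0.5, computed with the Universal PBM Analysis Suite. Scale: above 0.35 generally sequence-specific binding.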

Sequence	PBM E-score
CCAAATAA	0.118
GTATCTTA	0.213
AAATCAAG	0.15
ACATGACA	0.148
CTTTCTCA	0.0734
GAAAAAAC	0.265
ATAATGAT	0.203
CTTGATGC	-0.0583
AGATGGAG	0.0858
AGGTGCCA	-0.0797
GAGTAGGC	-0.113
CACCTGGC	-0.254
GCGGTAGC	-0.068
ATACCACA	0.0738
ATACGGTA	0.125
TCGGCAGA	0.00291
ACCCAACC	-0.0306
AAGAACTT	0.212
GAGACGAA	-0.00236
CGAGACCC	-0.167
CGTGTTCC	0.0674
CTTCGTTC	0.00337
GCGTCTCC	-0.241
CCGCTAAG	-0.131
CGGGCCCG	-0.216

Sequence	PBM E-score
AGCTCCGA	0.0238
CAGGCCAC	-0.179
AGTAGATG	0.135
CAGACGCG	-0.191
AGGGGTAC	-0.205
CTATTCAA	0.0501
GTGACACA	-0.013
GGGAGTAA	0.172
ACCGGGAA	0.0827
AGCACGCG	-0.165
ACTCATTG	-0.128
AGCTTGGC	-0.295
GGGGCCAA	-0.123
AGAGCTGG	-0.0335
GGAGCCCA	-0.253
GACTGTAA	-0.0708
GCCTTTGA	-0.00064
ACTTAGGA	-0.0384
GTAGTTAA	0.13
AACGGCTT	-0.052
GCAGGTGA	-0.221
CTCATGTC	-0.153
AGCCATGG	-0.158
AGCCTTCC	-0.0989
ATCGGTTC	-0.0187

Sequence	PBM E-score
TACGGCTA	-0.114
CAGATGAG	0.0164
CCGATCAC	0.171
CTAGGGCC	-0.175
TAAACCGA	-0.0166
CGTGGGGA	-0.131
GTTCGTCA	-0.135
AGCCCTGC	-0.128
AGGGCCAT	-0.127
ATACCCTA	0.168
CGTTGCAA	0.0537
AATCTCTA	0.241
GCTAAGAC	-0.0695
ATAAACGC	-0.0345
CCGTTGGC	-0.216
CAAGCTCG	-0.0159
CTGTATCC	-0.0868
CACCGCCG	-0.216
CAATATGA	0.141
CCGGAGTC	-0.0733
GCTATAGA	0.0396
CGGACCTC	-0.292
CGCTTGGC	-0.266
CGAGACTA	-0.0315
GATGCGGC	-0.16

Sequence	PBM E-score
AGTTTAAC	0.0138
AGTAGACC	0.0631
CTGCCTGC	-0.111
CACCCCTA	-0.235
GTAGCCCA	-0.121
GCAGGGGA	-0.405
CGGAACGC	-0.188
AGCCTGGC	-0.112
ATAAATCA	0.223
AGTGGAGC	-0.0976
AGGTGGCA	0.0529
CGGAGCTA	-0.0927
CCGGTGAA	0.00182
TATGCCAA	0.0532
AACTTGAC	-0.0113
CTACGGAA	0.0733
GCGCCGAC	-0.263
CCCTGCAC	-0.0773
GCATTAGA	0.133
GAGAGTAC	0.0366
GATACCGA	-0.155
GGATACCA	-0.0342
AAGGTCGT	-0.00228
AGGGAGTC	-0.193
AAAGCCTC	-0.0396

Sequence	PBM E-score
ACAGTGGC	-0.228
CGTTCAAG	-0.00623
GGGCTGGA	-0.0412
GCAGAGGA	-0.0964
AACACAGT	0.0158
TCCCATAA	-0.0456
TACCTCGA	0.116
CAGTAACG	0.0315
CCGCTTCC	-0.211
ATTTACCA	0.212
ACAGTTGC	-0.047
CCACTTAA	0.0531
AGGTGCTC	-0.398
CATCTACG	0.0592
AAGAGATC	-0.0848
AAACTCGC	0.0504
AGCCCCAC	-0.179
CTATCCTA	0.00969
CGGTAATC	-0.156
AGCATCCA	0.0677
GCAAATCC	0.041
CTCCACAC	-0.0229
ATGGTTAG	0.11
AACCGGAG	-0.0523
GGGGAGCA	-0.37

Sequence	PBM E-score
CTGCAAAG	-0.0144
GCCGCCAC	-0.349
CTGCTTAA	0.0805
CTGCCCAG	-0.178
CCAGTTAG	-0.0484
ACAACGTG	0.0817
CTGAAGTA	0.107
CAGCTAAG	-0.119
CGGCAACG	-0.278
GGCTAGAC	-0.144
CCATTGCA	0.0345
ACCGACCG	-0.227
AGTTCTAC	0.0539
CAATTGAC	0.0302
CTCGAACA	-0.0315
ACTTACTG	-0.00657
CCGTAGCC	-0.324
CCACCGCC	-0.206
GAGACTCA	-0.028
ATTTGGCA	-0.0652
GGCAACCA	-0.0635
AGATGAAG	-0.104
GCCTGTTA	0.0795
ACTCATGG	-0.0399
ATTTCTTC	0.313

Sequence	PBM E-score
AGGGGCTG	-0.194
GCCGAAAA	0.103
CTGTACGC	-0.24
CTAGTGCA	-0.0911
AGTCAACT	-0.00424
CAATCGGC	-0.0708
ACAAATTC	0.259
CCTGACAG	-0.0485
GCCGCACC	-0.11
TGTGCCAA	0.102
GCCAAACA	-0.15
CAGTATTC	0.0587
CACAATAA	0.179
CCAAGCTC	-0.0526
GCAAAGCA	-0.0947
GCTCGGCC	-0.191
AATCGGGA	0.0682
CTCCCGTC	0.0328
ACAGTACT	0.104
AGGGCTCA	-0.155
CTATCGAC	-0.135
CCTGATCC	-0.147
